{"sequences": {"note": "Protein sequences, listed by entry. Tags and fused reporters are not part of them. Residues count along the entry.", "UniProt P11166": "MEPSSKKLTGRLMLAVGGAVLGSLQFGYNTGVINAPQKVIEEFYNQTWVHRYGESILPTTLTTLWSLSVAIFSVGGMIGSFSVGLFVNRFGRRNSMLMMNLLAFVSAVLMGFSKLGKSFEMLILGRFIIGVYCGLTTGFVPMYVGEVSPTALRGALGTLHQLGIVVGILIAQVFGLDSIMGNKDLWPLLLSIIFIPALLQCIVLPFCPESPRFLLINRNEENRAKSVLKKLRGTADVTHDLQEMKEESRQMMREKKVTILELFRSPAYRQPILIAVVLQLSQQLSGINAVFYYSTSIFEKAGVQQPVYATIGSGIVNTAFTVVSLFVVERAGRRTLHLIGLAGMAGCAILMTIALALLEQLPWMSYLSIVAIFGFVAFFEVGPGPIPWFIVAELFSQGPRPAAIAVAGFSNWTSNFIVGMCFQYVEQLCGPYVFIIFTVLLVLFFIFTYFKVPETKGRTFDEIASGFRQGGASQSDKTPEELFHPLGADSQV", "UniProt P03381, residues 21-215": "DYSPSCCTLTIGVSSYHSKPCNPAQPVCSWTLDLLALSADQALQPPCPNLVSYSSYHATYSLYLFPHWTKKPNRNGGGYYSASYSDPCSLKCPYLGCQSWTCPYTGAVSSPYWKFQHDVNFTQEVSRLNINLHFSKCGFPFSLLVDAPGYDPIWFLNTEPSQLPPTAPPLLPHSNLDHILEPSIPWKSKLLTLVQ", "UniProt P03383, residues 19-178": "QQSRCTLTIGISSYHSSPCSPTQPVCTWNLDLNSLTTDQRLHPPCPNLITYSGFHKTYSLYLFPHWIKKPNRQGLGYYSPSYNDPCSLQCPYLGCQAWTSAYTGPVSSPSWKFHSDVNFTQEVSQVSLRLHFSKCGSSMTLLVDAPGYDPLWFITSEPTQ"}, "source": "paper PMC1876471", "key": {"[1]": {"target": "Endogenous Glut-1 on human cells (human (endogenous in 293T, Jurkat, erythrocytes, primary T cells)) (UniProt P11166)", "assay": "flow cytometry on cells; endogenous Glut-1 on 293T, Jurkat and primary human erythrocytes; 30 min at 37°C with HRBD-rFc supernatants or H2RBD-EGFP; Jurkat cells also with or without cytochalasin B or cytochalasin D (100 μM, 30 min)"}, "[2]": {"target": "Endogenous Glut-1 on human cells (human (endogenous in 293T, Jurkat, erythrocytes, primary T cells)) (UniProt P11166)", "assay": "flow cytometry on cells; primary human CD4+ and CD8+ T cells, non-activated or stimulated with αCD3/αCD28 mAbs; 30 min at 37°C with rFc-tagged H1RBD (then FITC sheep anti-rabbit IgG, 20 min at 4°C) or H2RBD-EGFP"}, "[3]": {"target": "T1, Human Glut-3 glucose transporter, ectopically expressed on transfected 293T cells (human) (UniProt P11169)", "T1 sequence": "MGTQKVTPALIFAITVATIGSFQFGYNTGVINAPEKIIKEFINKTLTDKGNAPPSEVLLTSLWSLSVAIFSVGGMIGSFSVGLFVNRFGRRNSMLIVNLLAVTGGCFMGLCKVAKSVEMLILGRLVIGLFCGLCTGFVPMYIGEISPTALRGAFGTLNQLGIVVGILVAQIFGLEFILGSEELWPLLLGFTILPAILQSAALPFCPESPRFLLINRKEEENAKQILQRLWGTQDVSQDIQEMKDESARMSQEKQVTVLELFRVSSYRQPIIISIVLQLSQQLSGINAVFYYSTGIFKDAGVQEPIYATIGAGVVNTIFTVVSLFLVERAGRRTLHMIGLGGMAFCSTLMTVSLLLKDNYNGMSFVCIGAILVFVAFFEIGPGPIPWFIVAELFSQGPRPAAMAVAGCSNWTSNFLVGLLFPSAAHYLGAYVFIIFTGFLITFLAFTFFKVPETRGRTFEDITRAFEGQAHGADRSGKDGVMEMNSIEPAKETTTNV", "assay": "flow cytometry on cells; 293T cells transfected with Glut-1 or Glut-3 vectors; cells incubated 30 min at 37°C with undiluted HRBD-rFc supernatants (then FITC anti-rabbit Fc, on ice) or 1:25-1:50 concentrated H2RBD-EGFP"}, "[4]": {"target": "Human Glut-1 glucose transporter, ectopically expressed on transfected 293T cells (human) (UniProt P11166)", "assay": "flow cytometry on cells; 293T cells transfected with Glut-1 or Glut-3 vectors; cells incubated 30 min at 37°C with undiluted HRBD-rFc supernatants (then FITC anti-rabbit Fc, on ice) or 1:25-1:50 concentrated H2RBD-EGFP"}}, "note": "Results are given in words; binding and its absence hold for the method and conditions named. Some results given as binding are weak or reduced against the parent protein; the word gives no strength. For some assays here: Where a sequence is shown, tags or fusion partners need not be part of it."}
{"substance": "H1RBD (H1_(215)SU subdomain of the HTLV-1 envelope SU, rFc-tagged fusion protein) (from UniProt P03381 21-215) (Fc fusion)", "values": [{"measurement": "binding", "setting": "[1]", "value": "binds"}, {"measurement": "binding", "setting": "[2]", "value": "binds"}, {"measurement": "binding", "setting": "[3]", "value": "no binding"}, {"measurement": "binding", "setting": "[4]", "value": "binds"}]}
{"substance": "H2RBD (H2_(178)SU subdomain of the HTLV-2 envelope SU, rFc-tagged fusion protein) (from UniProt P03383 19-178) (Fc fusion)", "values": [{"measurement": "binding", "setting": "[1]", "value": "binds"}, {"measurement": "binding", "setting": "[3]", "value": "no binding"}, {"measurement": "binding", "setting": "[4]", "value": "binds"}]}
{"substance": "H2RBD-EGFP (amino terminal 178 amino acids of the HTLV-2 RBD fused to EGFP) (from UniProt P03383 19-178) (domain or fragment)", "values": [{"measurement": "binding", "setting": "[1]", "value": "binds"}, {"measurement": "binding", "setting": "[2]", "value": "binds"}, {"measurement": "binding", "setting": "[3]", "value": "no binding"}, {"measurement": "binding", "setting": "[4]", "value": "binds"}]}
